Data from the supplement of paper PMC4604168 (melanoma cell lines).
The list shows a part of the results. Many values rest on one well or one pass, so single values are uncertain.

Tested on: MeWo
Test: cell count relative to DMSO control; melanoma cells; higher = more viable cells
Conditions: library dose: low library concentration; 72 h
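Also: cell number obtained by counting DAPI-stained nuclei in high-throughput microscope images with image analysis software, screen run in 1,536-well plates.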

SMILES | cell count [%]
CC1(C)CCC(c2ccc(Cl)cc2)=C(CN2CCN(c3ccc(C(=O)NS(=O)(=O)c4ccc(N[C@H](CCN5CCOCC5)CSc5ccccc5)c(S(=O)(=O)C(F)(F)F)c4)cc3)CC2)C1 + C[C@]1(c2nc3c(C(N)=O)cccc3[nH]2)CCCN1 [Veliparib] (first compound 0.4 µM, partner dose 1.4 µM) | 71.3
Cc1ccc(Nc2nccc(N(C)c3ccc4c(C)n(C)nc4c3)n2)cc1S(N)(=O)=O [Pazopanib] + CC(=O)c1c(C)c2cnc(Nc3ccc(N4CCNCC4)cn3)nc2n(C2CCCC2)c1=O [palbociclib] (first compound 0.4 µM, partner dose 0.04 µM) | 91.4
O=C(/C=C/c1cccnc1)NCCCCC1CCN(C(=O)c2ccccc2)CC1 + CC(=O)O[C@@]12CO[C@@H]1C[C@H](O)[C@@]1(C)C(=O)[C@H](O)C3=C(C)[C@@H](OC(=O)[C@H](O)[C@@H](NC(=O)OC(C)(C)C)c4ccccc4)C[C@@](O)([C@@H](OC(=O)c4ccccc4)[C@H]21)C3(C)C [Docetaxel] (first compound 0.01 µM, partner dose 0.0001 µM) | 47.9
O=C(/C=C/c1cccnc1)NCCCCC1CCN(C(=O)c2ccccc2)CC1 + COc1ccc(C2=N[C@@H](c3ccc(Cl)cc3)[C@@H](c3ccc(Cl)cc3)N2C(=O)N2CCNC(=O)C2)c(OC(C)C)c1 [Nutlin-3] (first compound 0.01 µM, partner dose 0.1 µM) | 112
O=C(/C=C/c1cccnc1)NCCCCC1CCN(C(=O)c2ccccc2)CC1 + COc1ccc(Cl)c(Nc2nc3ccccc3nc2NS(=O)(=O)c2cccc(NC(=O)C(C)(C)N)c2)c1 [XL147] (first compound 0.01 µM, partner dose 0.8 µM) | 97
O=C(/C=C/c1cccnc1)NCCCCC1CCN(C(=O)c2ccccc2)CC1 + CCN(CC)CCCCNc1ncc2cc(-c3cc(OC)cc(OC)c3)c(NC(=O)NC(C)(C)C)nc2n1 [PD173074] (first compound 0.01 µM, partner dose 0.1 µM) | 100
O=C(/C=C/c1cccnc1)NCCCCC1CCN(C(=O)c2ccccc2)CC1 + C[C@]1(O)C[C@@H](c2nc(-c3ccc4ccc(-c5ccccc5)nc4c3)c3c(N)nccn32)C1 [OSI906] (first compound 0.01 µM, partner dose 0.4 µM) | 99.6
Cc1ccc(Nc2nccc(N(C)c3ccc4c(C)n(C)nc4c3)n2)cc1S(N)(=O)=O [Pazopanib] + CS(=O)(=O)CCNCc1ccc(-c2ccc3ncnc(Nc4ccc(OCc5cccc(F)c5)c(Cl)c4)c3c2)o1 [lapatinib] (first compound 0.4 µM, partner dose 0.8 µM) | 108
CC1(C)CCC(c2ccc(Cl)cc2)=C(CN2CCN(c3ccc(C(=O)NS(=O)(=O)c4ccc(N[C@H](CCN5CCOCC5)CSc5ccccc5)c(S(=O)(=O)C(F)(F)F)c4)cc3)CC2)C1 + O=C(Nc1cccc(Cl)c1)Nc1ncc(CCNc2ncnc3ccsc23)s1 [SNS314] (first compound 0.4 µM, partner dose 0.0008 µM) | 81.2
O=C(/C=C/c1cccnc1)NCCCCC1CCN(C(=O)c2ccccc2)CC1 + CO[C@H]1C[C@@H]2CC[C@@H](C)[C@@](O)(O2)C(=O)C(=O)N2CCCC[C@H]2C(=O)O[C@H]([C@H](C)C[C@@H]2CC[C@@H](OCCO)[C@H](OC)C2)CC(=O)[C@H](C)/C=C(\C)[C@@H](O)[C@@H](OC)C(=O)[C@H](C)C[C@H](C)/C=C/C=C/C=C/1C [everolimus] (first compound 0.01 µM, partner dose 0.02 µM) | 69.2
CC1(C)CCC(c2ccc(Cl)cc2)=C(CN2CCN(c3ccc(C(=O)NS(=O)(=O)c4ccc(N[C@H](CCN5CCOCC5)CSc5ccccc5)c(S(=O)(=O)C(F)(F)F)c4)cc3)CC2)C1 + CO[C@H]1C[C@@H]2CC[C@@H](C)[C@@](O)(O2)C(=O)C(=O)N2CCCC[C@H]2C(=O)O[C@H]([C@H](C)C[C@@H]2CC[C@@H](OCCO)[C@H](OC)C2)CC(=O)[C@H](C)/C=C(\C)[C@@H](O)[C@@H](OC)C(=O)[C@H](C)C[C@H](C)/C=C/C=C/C=C/1C [everolimus] (first compound 0.4 µM, partner dose 0.02 µM) | 50.6
